System: HEK293 cells
Test: Luminescent Cytotoxicity Assay (CytoTox-Glo) after transfection with GluN1 and GluN2A or GluN2B constructs
Format: cell-based, human
Conditions: combined expression with GluN1, 48 h after transfection
Description: HEK293 Cell Culture HEK293 cells were cultured in Dulbecco's Modified Eagle Medium (DMEM, Gibco™, 41965-039) supplement with 10% Fetal Bovine Serum (FBS, Gibco™, 10270), 1% Sodium Pyruvate (Gibco™, 11360070), 1% MEM NEAA (Gibco™, 11140035) and 0.5% Penicillin-Streptomycin (P-S; Sigma, P0781) and Passage15-25 were used for experiments.
To test the cytotoxicity of compounds according to the present invention, HEK293 cells (70-80% confluent) were transfected 24 hours after plating with expression vectors for both GluN1 and GluN2A or GluN2B, respectively (1:1; 2 μg plasmids in total per 6-cm dishes) with Lipofectamine 2000 according to manufacturer's instructions. The relative number of dead cells in the population at the indicated time points after transfection was measured with the CytoTox-Glo™ Cytotoxicity assay (Promega, G9290) according to manufacturer's instruction with minor modification. Briefly, 10% of total medium were mixed with 10 μL AAF-amino luciferin to reach a final volume at 200 μL with water, the dead cell relative luminescence units (DRLU) was measured by GloMax (Promega) in a 96 well white bottom polystyrene microplate (Corning Costar®, 3912). After all the measurements, lysis reagents have been added to the cells and 10% of lysate was used for the total cell relative luminescence units (TRLU) measurement. Cell death was calculated by the following equations: […]

B1: SEQ ID NO:41: rat GluN2A deletion mutant lacking only the sequence motif of SEQ ID NO:1 (protein)
chain: MGRLGYWTLLVLPALLVWRDPAQNAAAEKGPPALNIAVLLGHSHDVTERELRNLWGPEQATGLPLDVNVVALLMNRTDPKSLITHVCDLMSGARIHGLVFGDDTDQEAVAQMLDFISSQTFIPILGIHGGASMIMADKDPTSTFFQFGASIQQQATVMLKIMQDYDWHVFSLVTTIFPGYRDFISFIKTTVDNSFVGWDMQNVITLDTSFEDAKTQVQLKKIHSSVILLYCSKDEAVLILSEARSLGLTGYDFFWIVPSLVSGNTELIPKEFPSGLISVSYDDWDYSLEARVRDGLGILTTAASSMLEKFSYIPEAKASCYGQAEKPETPLHTLHQFMVNVTWDGKDLSFTEEGYQVHPRLVVIVLNKDREWEKVGKWENQTLSLRHAVWPRYKSFSDCEPDDNHLSIVTLEEAPFVIVEDIDPLTETCVRNTVPCRKFVKINNSTNEGMNVKKCCKGFCIDILKKLSRTVKFTYDLYLVTNGKHGKKVNNVWNGMIGEVVYQRAVMAVGSLTINEERSEVVDFSVPFVETGISVMVSRSNGTVSPSAFLEPFSASVWVMMFVMLLIVSAIAVFVFEYFSPVGYNRNLAKGKAPHGPSFTIGKAIWLLWGLVFNNSVPVQNPKGTTSKIMVSVWAFFAVIFLASYTANLAAFMIQEEFVDQVTGLSDKKFQRPHDYSPPFRFGTVPNGSTERNIRNNYPYMHQYMTRFNQRGVEDALVSLKTGKLDAFIYDAAVLNYKAGRDEGCKLVTIGSGYIFASTGYGIALQKGSPWKRQIDLALLQFVGDGEMEELETLWLTGICHNEKNEVMSSQLDIDNMAGVFYMLAAAMALSLITFIWEHLFYWKLRFCFTGVCSDRPGLLKKKSPDFNLTGSQSNMLKLLRSAKNISNMSNMNSSRMDSPKRATDFIQRGSLIVDMVSDKGNLIYSDNRSFQGKDSIFGDNMNELQTFVANRHKDNLSNYVFQGQHPLTLNESNPNTVEVAVSTESKGNSRPRQLWKKSMESLRQDSLNQNPVSQRDEKTAENRTHSLKSPRYLPEEVAHSDISETSSRATCHREPDNNKNHKTKDNFKRSMASKYPKDCSDVDRTYMKTKASSPRDKIYTIDGEKEPSFHLDPPQFVENITLPENVGFPDTYQDHNENFRKGDSTLPMNRNPLHNEDGLPNNDQYKLYAKHFTLKDKGSPHSEGSDRYRQNSTHCRSCLSNLPTYSGHFTMRSPFKCDACLRMGNLYDIDEDQMLQETGNPATREEVYQQDWSQNNALQFQKNKLRINRQHSYDNILDKPREIDLSRPSRSISLKDRERLLEGNLYGSLFSVPSSKLLGNKSSLFPQGLEDSKRSKSLLPDHASDNPFLHTYGDDQRLVIGRCPSDPYKHSLPSQAVNDSYLRSSLRSTASYCSRDSRGHSDVYISEHVMPYAANKNTMYSTPRVLNSCSNRRVYKKMPSIESDV
modifications: GluN2A LACK SEQ ID 1, Q00959, NMDE1_RAT
What does the source list for B1?
cell death: much lower level of cell death; cell death (listed as GluN2A: lacking SEQ ID NO:1): substantially lost their capacity to induce cell death

From patent US20230340060A1, “NOVEL MEANS TO PREDICT AND MANIPULATE NMDA RECEPTOR-MEDIATED TOXICITY” (FundaMental Pharma GmbH, priority 2020, published 2023)
